The text below walks through data of publication PMC4336329 (PLoS ONE, 2015).

In all, about 310,000 compounds went through this assay and about 2,200 (0.71%) showed an effect of 50% or more. The effect is printed as a negative number. The list shows a part of the results.

human ether-à-go-go-related gene (hERG) potassium channel, sequence (Q12809 whole entry, looked up): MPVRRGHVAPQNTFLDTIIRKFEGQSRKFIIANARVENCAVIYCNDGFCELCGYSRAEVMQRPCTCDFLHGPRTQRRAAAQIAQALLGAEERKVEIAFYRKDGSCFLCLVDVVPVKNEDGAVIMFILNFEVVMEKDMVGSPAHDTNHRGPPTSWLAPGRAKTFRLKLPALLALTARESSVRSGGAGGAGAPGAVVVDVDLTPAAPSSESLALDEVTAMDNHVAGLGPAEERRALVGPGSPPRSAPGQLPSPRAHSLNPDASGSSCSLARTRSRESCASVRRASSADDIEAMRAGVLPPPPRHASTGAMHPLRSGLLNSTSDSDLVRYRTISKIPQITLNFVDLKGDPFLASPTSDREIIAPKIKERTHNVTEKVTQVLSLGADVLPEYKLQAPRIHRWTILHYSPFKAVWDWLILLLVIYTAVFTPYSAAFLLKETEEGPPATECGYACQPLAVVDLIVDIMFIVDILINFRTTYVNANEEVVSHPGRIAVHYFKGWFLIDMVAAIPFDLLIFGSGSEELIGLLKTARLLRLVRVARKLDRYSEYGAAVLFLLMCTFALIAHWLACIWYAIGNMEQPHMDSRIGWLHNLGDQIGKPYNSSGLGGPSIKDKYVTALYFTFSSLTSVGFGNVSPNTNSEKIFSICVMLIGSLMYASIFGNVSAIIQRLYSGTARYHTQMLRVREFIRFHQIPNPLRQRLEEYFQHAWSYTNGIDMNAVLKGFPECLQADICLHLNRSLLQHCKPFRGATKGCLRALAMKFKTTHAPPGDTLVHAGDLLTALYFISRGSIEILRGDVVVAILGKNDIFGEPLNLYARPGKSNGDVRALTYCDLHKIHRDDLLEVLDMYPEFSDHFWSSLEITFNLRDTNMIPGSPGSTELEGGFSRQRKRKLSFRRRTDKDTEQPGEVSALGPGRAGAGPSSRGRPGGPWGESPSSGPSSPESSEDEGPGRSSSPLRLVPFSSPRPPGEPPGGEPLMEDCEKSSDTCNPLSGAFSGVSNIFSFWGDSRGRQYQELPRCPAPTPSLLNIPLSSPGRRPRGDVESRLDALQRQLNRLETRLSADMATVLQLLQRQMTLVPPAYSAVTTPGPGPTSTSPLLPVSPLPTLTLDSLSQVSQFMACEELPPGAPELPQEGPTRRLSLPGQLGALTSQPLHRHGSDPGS

The experiment has as its target human ether-à-go-go-related gene (hERG) potassium channel (human, UniProt Q12809). As to the kind of experiment: primary screen, population patch clamp on CHO cells stably expressing hERG.
On to `CNC(=O)Oc1ccc2c(c1)C(=O)c1ccccc1CO2`, for which the “hERG current change (%, negative = inhibition) at 1uM” value is given as 12.1%.

For the compound `O=C(Nc1cccnc1)c1ccc(Cl)c(S(=O)(=O)N2CCCCC2)c1`, the “hERG current change (%, negative = inhibition) at 1uM” value is listed as 7.75%.

Turning to `Cc1cc(C)c(C(=O)Nc2ccc(Br)c(C(F)(F)F)c2)c(C)c1`, the “hERG current change (%, negative = inhibition) at 1uM” value is listed as 10%.

Consider `C(=N\N1CCN(c2ccccn2)CC1)/C1=C(N2CCOCC2)C(=C/c2ccccc2)/CC1`, for which the “hERG current change (%, negative = inhibition) at 1uM” value was determined as 12.8%.

With `Cc1ccc(CSCc2ccc(C(=O)O)o2)cc1`, the “hERG current change (%, negative = inhibition) at 1uM” value worked out at 17.4%.

As for `COc1ccc(-c2cc(C(=O)N3CCOCC3)no2)cc1`, the “hERG current change (%, negative = inhibition) at 1uM” value stood at 11.2%.

`Cc1cccc(N2CCN(S(=O)(=O)c3ccc4c(c3)C(C)(C)C(=O)N4C)CC2C)c1` (stereo not shown): the “hERG current change (%, negative = inhibition) at 1uM” value stood at 7.22%.

`CCOC(=O)C1=C(CN2CCN(C(=O)c3ccco3)CC2)NC(=O)NC1c1ccc(F)cc1` (stereo not shown): the “hERG current change (%, negative = inhibition) at 1uM” value is on record as -2.81%.

For the compound `COc1ccccc1C(CNC(=O)C(C)(C)Oc1ccc(Cl)cc1)N1CCCC1` (stereo not shown), the “hERG current change (%, negative = inhibition) at 1uM” value is on record as -2.23%.

For `COCc1cc(Sc2ccc(OC)cc2)nc(-c2ccccc2)n1`, the “hERG current change (%, negative = inhibition) at 1uM” value was 16.2%.

Take `C=CCNC(=O)c1ccc2c3n(nc2c1)-c1ccc(C)cc1CO3`: the “hERG current change (%, negative = inhibition) at 1uM” value was -1.03%.

Take `O=c1[nH]c2ccccc2c(O)c1Cc1ccccc1`: the “hERG current change (%, negative = inhibition) at 1uM” value was 4.59%.

For the compound `Cn1c(SCC(=O)Nc2nccs2)nnc1-c1ccncc1`, the “hERG current change (%, negative = inhibition) at 1uM” value is listed as -1.28%.

Turning to `O=C(Nc1ccccc1)c1nc[nH]c1C(=O)N1CCc2ccccc2C1`, the “hERG current change (%, negative = inhibition) at 1uM” value amounted to 11.9%.

As to `Cn1c(O)c(N=NC(=O)c2cccc(S(=O)(=O)N3CCCCC3)c2)c2ccccc21`, the “hERG current change (%, negative = inhibition) at 1uM” value came out at 12.1%.

On to `CCCNC(=O)c1cccc(S(=O)(=O)N2CC3(C)CC2CC(C)(C)C3)c1` (stereo not shown), for which the “hERG current change (%, negative = inhibition) at 1uM” value is listed as -5.48%.

In the case of `CCN1C(=O)C(=O)N(CC(=O)c2[nH]c(C)c(C(C)=O)c2C)C1=O`, the “hERG current change (%, negative = inhibition) at 1uM” value turned out to be 8.54%.

`CC(=O)c1cccc(NC(=O)NCc2ccco2)c1`: the “hERG current change (%, negative = inhibition) at 1uM” value is reported as 7.85%.

`Oc1ccccc1C=NCCN=Cc1ccccc1O`: the “hERG current change (%, negative = inhibition) at 1uM” value is listed as 7.21%.

As to `CCOC(=O)c1ccc(N=Cc2c(O)n(-c3ccc(OC)cc3)c(=S)[nH]c2=O)cc1`, the “hERG current change (%, negative = inhibition) at 1uM” value came out at 19.2%.

`COc1ccccc1NC(=O)Cn1cnc2c(oc3ccccc32)c1=O`: the “hERG current change (%, negative = inhibition) at 1uM” value is 3.35%.

As for `O=C(CSC1=NS(=O)(=O)c2ccccc2N1)Nc1ccccc1F`, the “hERG current change (%, negative = inhibition) at 1uM” value is given as 12.6%.

For `O=[N+]([O-])c1ccccc1S(=O)(=O)NC1CCCC1`, the “hERG current change (%, negative = inhibition) at 1uM” value was found to be 12.5%.

As for `CSc1ccc(Cl)c(C(=O)OCC(=O)N(C)CCC#N)c1`, the “hERG current change (%, negative = inhibition) at 1uM” value was determined as 5.97%.

Turning to `CCOC(=O)C(C)(CC)NC(=O)CSP(=S)(OCC)OCC` (stereo not shown), the “hERG current change (%, negative = inhibition) at 1uM” value was 4.98%.
